This note sets out measurements from the supplement of paper PMC12645437, “Orthogonal IMiD-Degron Pairs Induce Selective Protein Degradation in Cells” (ACS Chemical Biology, 2025).

Some of the results follow.
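Also: jurkat cells carrying a lentiviral library of mutant zinc finger degrons fused to EGFP plus mCherry, mCherry+ cells FACS sorted, degron abundance counted by next-generation sequencing.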

For the experiment, the target named is no compound (DMSO). As to the kind of experiment: log2 fold change of degron read counts, EGFP-low vs EGFP+ sorted cells; higher = lower degron-EGFP level without compound (poor expression or instability). The settings on record: compound: DMSO control; 18 h.
Take FQCPICGHRFTQKGNLLRHIKL: the “log2 fold change of degron read counts” value is -0.179.
For FHCNQCGHLFTQKGNLLRHIKL, the “log2 fold change of degron read counts” value turned out to be 0.298.
To FKCNICGAMFTQKGNLLRHIKL belongs -0.858; to FRCPICGAHFTQKGNLLRHIKL, 0.0476.
In the case of FICEICGRFFTQKGNLLRHIKL it was -0.294; in that of FECPICGHYFTQKGNLLRHIKL, -0.786; in that of FFCPVCGAGFTQKGNLLRHIKL, 0.484.
To FLCDVCGAWFTQKGNLLRHIKL belongs -0.522.
Regarding LQCEICGFFCTQKGNLLRHIKL, the “log2 fold change of degron read counts” value amounted to 0.577.
To LCCNQCGFLCTQKGNLLRHIKL belongs 1.36; to FWCNQCGHMFTQKGNLLRHIKL, 1.36.
Take FGCEICGRQFTQKGNLLRHIKL: the “log2 fold change of degron read counts” value is -1.31.
To FDCEICGAVFTQKGNLLRHIKL belongs -1.17; to FICPICGRFFTQKGNLLRHIKL, 0.63.
In the case of FQCDQCGARFTQKGNLLRHIKL it was -1.89.
To FGCDICGAYFTQKGNLLRHIKL belongs -0.67; to FTCEICGHFFTQKGNLLRHIKL, -0.887; to FDCPICGARFTQKGNLLRHIKL, -0.889.
Consider FECPVCGASFTQKGNLLRHIKL, for which the “log2 fold change of degron read counts” value is -0.688.
In the case of FACNQCGRKFTQKGNLLRHIKL it was -0.046; in that of FSCEVCGALFTQKGNLLRHIKL, -1.06.
To LACPICGFRCTQKGNLLRHIKL belongs 0.593; to FMCNQCGRCFTQKGNLLRHIKL, -0.367.
On to FNCNQCGHSFTQKGNLLRHIKL, for which the “log2 fold change of degron read counts” value was -0.337.
In the case of LACEICGFFCTQKGNLLRHIKL it was 1.39.
For the sequence FRCNQCGHWFTQKGNLLRHIKL, the “log2 fold change of degron read counts” value came out at 0.978.
In the case of FECEQCGAFFTQKGNLLRHIKL it was -1.58; in that of FQCDQCGAMFTQKGNLLRHIKL, -0.901; in that of FKCDVCGAVFTQKGNLLRHIKL, -1.53.
As for FDCEVCGATFTQKGNLLRHIKL, the “log2 fold change of degron read counts” value is -1.79.
Regarding FCCDVCGAWFTQKGNLLRHIKL, the “log2 fold change of degron read counts” value is -0.418.
Take LQCNQCGFACTQKGNLLRHIKL: the “log2 fold change of degron read counts” value was determined as 0.27.
To LQCEICGFTCTQKGNLLRHIKL belongs -0.977; to FQCNQCGRYFTQKGNLLRHIKL, -0.129.
As to FDCEVCGAWFTQKGNLLRHIKL, the “log2 fold change of degron read counts” value came out at 0.146.
In the case of FDCDICGAGFTQKGNLLRHIKL, the “log2 fold change of degron read counts” value is -0.875.
In the case of LECPICGFICTQKGNLLRHIKL it was 0.301; in that of FMCPICGRFFTQKGNLLRHIKL, 1.04; in that of FLCDICGAKFTQKGNLLRHIKL, -2.55.
As for FWCNVCGAKFTQKGNLLRHIKL, the “log2 fold change of degron read counts” value is -0.503.
For FFCPICGHSFTQKGNLLRHIKL, the “log2 fold change of degron read counts” value was found to be 0.281.
FVCNVCGAPFTQKGNLLRHIKL: the “log2 fold change of degron read counts” value is -0.797.
In the case of FCCSVCGHIFTQKGNLLRHIKL it was 0.583; in that of FECEQCGAWFTQKGNLLRHIKL, -0.977; in that of FGCDICGAGFTQKGNLLRHIKL, -0.679.
With FYCDVCGARFTQKGNLLRHIKL, the “log2 fold change of degron read counts” value was -0.955.
For FECPQCGAPFTQKGNLLRHIKL, the “log2 fold change of degron read counts” value is -2.19.
FCCEICGAIFTQKGNLLRHIKL: the “log2 fold change of degron read counts” value was -0.62.
Turning to FDCPVCGADFTQKGNLLRHIKL, the “log2 fold change of degron read counts” value was -1.02.
To FVCPQCGARFTQKGNLLRHIKL belongs -0.498.
